Source: the supplement of paper PMC10126150
Values marked as one replicate rest on one cluster of the flow cell; about a third of the high ones do not repeat.
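Further: ATP exposure 15 min at 22 °C before imaging.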

These sequences were tested on ATP (assay: switch fluorescence ratio, 500 uM ATP over buffer (Cy3 cluster intensity, sum of 5 cycles each) (fold (ratio)); higher = stronger signal-on switching upon ATP binding; sequences stand for … in TCGTCGGCAGCGTCAGATGTGTATAAGAGACAGTTTTTTTTTTTTTTTTTTTTTTTTT…TC). Settings: aptamer strand: ATP DNA aptamer (quencher-CACCTGGGGGAGTATTGCGGAGGAAGG + anchor), 100 nM annealed; ATP concentration: 500 uM; one replicate.
Outline: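 After annealing to 100 nM quencher-labelled ATP aptamer, Cy3-labelled switching-strand clusters on a modified Illumina MiSeq flow-cell were imaged in selection buffer. A second image followed after 15 min with 500 uM ATP at 22 °C, and five such buffer/ATP cycles were done, each separated by NaOH stripping and re-annealing. The fluorescence ratio, averaged per switch-domain sequence, is summed target-cycle over summed buffer-cycle Cy3 intensity per cluster, with clusters outside 100-1000 RFU excluded.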
AAGGGGAGAT gave a switch fluorescence ratio of 1.03. For CACCGATCTT, the switch fluorescence ratio was 1.01. TTCTGAGCGC showed a switch fluorescence ratio of 1.1. In the case of CGCCATTTGA, the switch fluorescence ratio is reported as 0.975. Sequence GGTAGATAAA has a switch fluorescence ratio of 1.02. CATTTGTATC was tested, and the switch fluorescence ratio was 1.05. Work on TCTAATTACT yielded a switch fluorescence ratio of 1.02. With TCTTTATTGA the switch fluorescence ratio was 1.02. Sequence ATTTAGGCCT has a switch fluorescence ratio of 0.999. Work on TTGTATCGTA yielded a switch fluorescence ratio of 0.993. GCTCCAAGCG was tested, and the switch fluorescence ratio was 1.05. GGGTACTCAT was tested, and the switch fluorescence ratio was 1.02. TTGTTAGACT showed a switch fluorescence ratio of 1. TTCGTAGTTC was tested, and the switch fluorescence ratio was 1.08. With TGAGATACTA the switch fluorescence ratio was 1.01. CAGGACAGAT gave a switch fluorescence ratio of 0.981. TTCCCGTGAA was tested, and the switch fluorescence ratio was 1.04. With GCTTCGTGCT the switch fluorescence ratio was 1.03. Work on ATCACTAGTC yielded a switch fluorescence ratio of 1.02. ATTGCAGTCG showed a switch fluorescence ratio of 1.03. For TGGAGCACAG, the switch fluorescence ratio was 1.3. For ATGGCAAGGG, the switch fluorescence ratio was 1.03. Sequence GTGGCATTA has a switch fluorescence ratio of 0.987. AACATCTTTC was tested, and the switch fluorescence ratio was 0.987. Work on GAATGATTTG yielded a switch fluorescence ratio of 0.986. Work on AGACCCCTCA yielded a switch fluorescence ratio of 0.996. For TTCGGTCGTG, the switch fluorescence ratio was 0.995. In the case of CGAGAATCGG, the switch fluorescence ratio is reported as 0.971. In the case of GTCAGCTTTA, the switch fluorescence ratio is reported as 1.02. CATTCCATGA gave a switch fluorescence ratio of 1.05. TATACCCGGC was tested, and the switch fluorescence ratio was 1.08. Work on GAGTCCGTTC yielded a switch fluorescence ratio of 1.26. Sequence TTTCACGATG has a switch fluorescence ratio of 1. TACGGAGTGC was tested, and the switch fluorescence ratio was 1.15. For GGGATTCAGG, the switch fluorescence ratio was 1.46. With AGGAATCGCG the switch fluorescence ratio was 0.993. For AGGATTACGT, the switch fluorescence ratio was 0.992. Sequence CAGGTGTTCT has a switch fluorescence ratio of 1.46. TCACTGACTA gave a switch fluorescence ratio of 1.2. For CGCTCACAAC, the switch fluorescence ratio was 1.5. Work on GATCGTTCTT yielded a switch fluorescence ratio of 0.997. AGAGCATTCG showed a switch fluorescence ratio of 1.02. Work on ACAGCCTTCT yielded a switch fluorescence ratio of 0.999. In the case of GGAATTAGCA, the switch fluorescence ratio is reported as 0.985. Sequence ACGGGTAGTA has a switch fluorescence ratio of 1. Work on CTACCCGTCG yielded a switch fluorescence ratio of 0.989. With TAGCTGCTGT the switch fluorescence ratio was 1.02. For TCCTCGATGT, the switch fluorescence ratio was 1.02. GCAAGTCCAT gave a switch fluorescence ratio of 1. Work on GATTGTGGCC yielded a switch fluorescence ratio of 0.949. GTTTTTAGCG was tested, and the switch fluorescence ratio was 0.952. Work on ATAGCCCAGT yielded a switch fluorescence ratio of 1.01. With GGCTGAGCCC the switch fluorescence ratio was 0.953. In the case of CTCAATACA, the switch fluorescence ratio is reported as 1.32. TCGTTATGAC gave a switch fluorescence ratio of 0.996. Work on GGTTGTGTGG yielded a switch fluorescence ratio of 0.96. For TGCGGAGCGC, the switch fluorescence ratio was 1.08. GTTGCCGTTA gave a switch fluorescence ratio of 0.961. GAAGACTGGC was tested, and the switch fluorescence ratio was 0.944. With AATACATATC the switch fluorescence ratio was 1.03. In the case of AGCTGTGACA, the switch fluorescence ratio is reported as 0.947. In the case of ATACTGAGTG, the switch fluorescence ratio is reported as 0.993. TACTAGTTCC showed a switch fluorescence ratio of 1.08. GCGAGGACCC gave a switch fluorescence ratio of 1.04. CGGGATAGTG was tested, and the switch fluorescence ratio was 1.02. Sequence TCTCACCATT has a switch fluorescence ratio of 1.03. GCATCCATAA showed a switch fluorescence ratio of 1.02. In the case of TTTGAAGGAG, the switch fluorescence ratio is reported as 0.989. Work on ATAGGGTAGG yielded a switch fluorescence ratio of 1. Work on GAGAAATAGT yielded a switch fluorescence ratio of 0.993. For AATGGCTTAT, the switch fluorescence ratio was 0.954. For GAAGTTGGAT, the switch fluorescence ratio was 0.953. Sequence AGATCCAGCA has a switch fluorescence ratio of 1.05. GACTATCTCT showed a switch fluorescence ratio of 1. With GGAGTGCGCG the switch fluorescence ratio was 0.966. Sequence TGCTAGGTG has a switch fluorescence ratio of 1.66. With TACCCGCCGT the switch fluorescence ratio was 1.12. ATCGCAAATT gave a switch fluorescence ratio of 1.14. Work on ATAAGCGTC yielded a switch fluorescence ratio of 0.952. With GTTAGCGA the switch fluorescence ratio was 1.08. TTCGGGCCTG showed a switch fluorescence ratio of 1.03. TCTTGAACAC was tested, and the switch fluorescence ratio was 1.04. Sequence ACGTGTGACC has a switch fluorescence ratio of 1.03. CATGGTAAAC gave a switch fluorescence ratio of 0.998. AGGGATTCCT gave a switch fluorescence ratio of 1.02. ACCATATGAA gave a switch fluorescence ratio of 1.02. CCTGTTGGGT gave a switch fluorescence ratio of 1.04. Sequence TCAGGTCAGT has a switch fluorescence ratio of 0.993. Sequence CTGTCCAGCG has a switch fluorescence ratio of 1.03. TGAATGATGT showed a switch fluorescence ratio of 0.946. TTTATTGACA was tested, and the switch fluorescence ratio was 1.04. TTCCAGGACA showed a switch fluorescence ratio of 1.04. With CACTGTAGGA the switch fluorescence ratio was 1.17. TATCGTTGCA showed a switch fluorescence ratio of 0.981. In the case of GGCCCATTGA, the switch fluorescence ratio is reported as 1.02. Work on TTTATCTGGT yielded a switch fluorescence ratio of 0.985. Work on TCAGGACTGC yielded a switch fluorescence ratio of 0.987. In the case of AGGTGATGG, the switch fluorescence ratio is reported as 1.02. With TTTGCCCGCG the switch fluorescence ratio was 0.955. TTTAATGGGC showed a switch fluorescence ratio of 0.929. Work on TAGGCAGCTG yielded a switch fluorescence ratio of 1.02. GAGCCATCTG gave a switch fluorescence ratio of 1.01. CTCAGGGCCA showed a switch fluorescence ratio of 1.01. Sequence GATTAGTGCC has a switch fluorescence ratio of 0.966. Sequence TCGTAAAAT has a switch fluorescence ratio of 1.03. AGTGAGGCAG gave a switch fluorescence ratio of 0.984. TAGTGTGTCA gave a switch fluorescence ratio of 0.972. AATCTCCTC was tested, and the switch fluorescence ratio was 1.07. AAAATAGGG showed a switch fluorescence ratio of 1.02. CTTGGACTGG showed a switch fluorescence ratio of 1.01. In the case of TCCGGTTTAT, the switch fluorescence ratio is reported as 1.04. In the case of ATTTAATTCA, the switch fluorescence ratio is reported as 0.976. AGGTGTATCG showed a switch fluorescence ratio of 0.959. Work on AGTTTGTCAC yielded a switch fluorescence ratio of 0.975. TTGTAGACCA showed a switch fluorescence ratio of 1.04. Sequence CGAGCTCAAG has a switch fluorescence ratio of 1.03. For GAGGGAAAGA, the switch fluorescence ratio was 0.957. Sequence TGGGAAGCCC has a switch fluorescence ratio of 0.993. Work on ACAAAAAGAA yielded a switch fluorescence ratio of 0.974. Work on AAGTAATTCG yielded a switch fluorescence ratio of 0.948. TTTACATAA showed a switch fluorescence ratio of 1.04. GGTTTGAGC was tested, and the switch fluorescence ratio was 0.986. Work on CCGTTTAGCT yielded a switch fluorescence ratio of 1.09. GGTGTGGTTC gave a switch fluorescence ratio of 0.97. In the case of GGTCTGACA, the switch fluorescence ratio is reported as 0.964. In the case of GCTAGGCCAT, the switch fluorescence ratio is reported as 0.972. TTAGGACTGC was tested, and the switch fluorescence ratio was 0.988. GATATTCTCA gave a switch fluorescence ratio of 0.995. In the case of CATGAGTTCC, the switch fluorescence ratio is reported as 0.983. AGCGTCAAAG gave a switch fluorescence ratio of 1.02. Work on AAGCATGAGT yielded a switch fluorescence ratio of 1.01. With GCTGGAGGCT the switch fluorescence ratio was 0.965. With AGGATACTAC the switch fluorescence ratio was 1.08. TTAGAAGAC gave a switch fluorescence ratio of 1.03. GCGTAGAGTG gave a switch fluorescence ratio of 1.01. CGTATCACAT gave a switch fluorescence ratio of 1.01. Sequence GGTCCATATC has a switch fluorescence ratio of 0.989. With TATGGGGGCG the switch fluorescence ratio was 0.951. ATGAAATCAC gave a switch fluorescence ratio of 1.29. Work on ATTACGCCGA yielded a switch fluorescence ratio of 1.06. AATCGGAGTT showed a switch fluorescence ratio of 0.987. AGCAGCCTCT was tested, and the switch fluorescence ratio was 1.04. In the case of TATTTTGCAA, the switch fluorescence ratio is reported as 1.09. GTATTAGGCT gave a switch fluorescence ratio of 1.01. GCTCTGGAAT gave a switch fluorescence ratio of 1.07. GTTGAAAATA was tested, and the switch fluorescence ratio was 1.04. For TCCAGTCAGC, the switch fluorescence ratio was 1.03. Work on ACAGAGAAGT yielded a switch fluorescence ratio of 1.01. With TTATAGATTA the switch fluorescence ratio was 0.961. Work on TATATACTCA yielded a switch fluorescence ratio of 1.1. Sequence GAGCAGATTT has a switch fluorescence ratio of 0.999. With CTTGTGCCCA the switch fluorescence ratio was 0.973. TTAAAGCGAC showed a switch fluorescence ratio of 1.99. TTTATCTGTT gave a switch fluorescence ratio of 1.05. Sequence CTATGGCTCC has a switch fluorescence ratio of 1.03. Sequence TGTGGGTCG has a switch fluorescence ratio of 0.932. In the case of CACTACGTCA, the switch fluorescence ratio is reported as 1.19.
